# Among all 48,000 compounds or so, about 1,200 (2.5%) were called active. Another 2% or so got no clear call; they are omitted.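 How the source made its calls: active means activation of at least 60% and not above a set upper limit (about 1 call in 100 departs from these limits); inconclusive means activation of 40% to 60%, or above that upper limit; inactive means activation under 40%.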 This is one part of the list.
# Biological target: Probable G-protein coupled receptor 32 (Homo sapiens) (UniProt O75388)
# Assay: qHTS for Agonists of Human Resolvin D1 Receptor DRV1; further: 0% is about no effect
# Settings: CHO-K1 GPR32 beta-arrestin PathHunter luminescence, 90 min; at 76.9 µM; hits give high values; zero percent set by DMSO-only wells
# Summary of the method: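 PathHunter beta-arrestin recruitment in CHO-K1 cells stably expressing ProLink-tagged GPR32. Cells were exposed to compound for 90 min at 37 C, then chemiluminescence was read after 1 h detection at ambient temperature; DMSO served as basal control.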
# Sequence of UniProt O75388 (O75388 whole entry, looked up): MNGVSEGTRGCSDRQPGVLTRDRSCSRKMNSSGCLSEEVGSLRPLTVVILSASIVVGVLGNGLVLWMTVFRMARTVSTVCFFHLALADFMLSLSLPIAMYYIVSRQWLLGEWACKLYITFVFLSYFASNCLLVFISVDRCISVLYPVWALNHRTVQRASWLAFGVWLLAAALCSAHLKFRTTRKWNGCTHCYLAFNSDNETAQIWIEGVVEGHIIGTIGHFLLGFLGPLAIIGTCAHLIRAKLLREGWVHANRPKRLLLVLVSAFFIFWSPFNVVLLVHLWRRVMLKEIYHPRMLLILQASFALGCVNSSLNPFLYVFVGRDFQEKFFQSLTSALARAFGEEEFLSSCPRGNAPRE
row,SMILES,activation
1,CCOc1ccc2nc(N(Cc3cccnc3)C(=O)c3ccc4c(c3)OCCO4)sc2c1,inactive: -6.42%
2,COC(=O)c1cc2sc(C)cc2n1Cc1ccc(F)cc1Cl,inactive: -3.55%
3,COc1ccccc1CNC(=O)Cn1c(=O)ccc2cc(S(=O)(=O)N3CCC(C)CC3)ccc21,inactive: -5.4%
4,COC(=O)c1c(C)oc2c1cc(NS(=O)(=O)c1c(C)cc(C)cc1C)c1ccccc12,inactive: -10.9%
5,O=S(=O)(c1ccc(Cl)cc1)c1nc(-c2ccccc2Br)oc1N1CCOCC1,inactive: -12.3%
6,Cc1ccc(CCNC(=O)c2nnc(Cc3cccc(F)c3)o2)cc1,inactive: 14.5%
7,CCCCN(CC)CCCNC(=O)c1cn(CC(C)C)c(=O)c2c1c1ccccc1n2C,inactive: 0.188%
8,Cn1c(=O)c2c(nc(NCCc3ccccc3)n2Cc2cccc(Br)c2)n(C)c1=O,inactive: 40.1%
9,COc1ccc2c(c1)CCc1c(C(=O)Nc3c(C)nn(Cc4ccccc4Cl)c3C)noc1-2,inactive: 0.53%
10,O=c1n(Cc2ccc(F)cc2Cl)c2ccccc2c2nc(-c3ccccc3)nn12,inactive: -0.429%
11,COc1ccc(S(=O)(=O)NCC(c2cccs2)S(=O)(=O)c2ccc(C)cc2)cc1F (configuration not stated),inactive: -17.5%
12,Cc1[nH]c2ccc(F)cc2c1CCNC(=O)c1cc2cc(Cl)ccc2oc1=O,inactive: 31.5%
13,CC(C)Oc1ccc(C(=O)Nc2ccc3oc(-c4ccncc4)nc3c2)cc1,inactive: -2.03%
14,CC1Cc2ccccc2N1S(=O)(=O)c1nnc(NC(=O)c2ccccc2Br)s1 (configuration not stated),inactive: 1.75%
15,COc1ccc(-c2cn3nc(N4CCCC(C(=O)Nc5ccc(Cl)cc5C)C4)sc3n2)cc1 (configuration not stated),inactive: -7.1%
16,COc1cc(NC(=O)C(NC(=O)C2CCC(C)CC2)C(C)C)cc(OC)c1OC (configuration not stated),inactive: -2.44%
17,Cc1ccc(CNC(=O)c2c[nH]c3ccc(S(=O)(=O)Nc4ccc(C(C)C)cc4)cc3c2=O)cc1,inactive: 6.61%
18,COCCn1c(CNC(=O)c2cc([N+](=O)[O-])ccc2Cl)nc2cccnc21,inactive: 0.933%
19,COc1ccc(Cl)cc1NS(=O)(=O)c1c(C)nc2scc(C)n2c1=O,inactive: 0.932%
20,Cc1ccccc1-n1c(=O)c2ccccc2n(Cc2ccc(F)cc2)c1=O,inactive: -4.69%
21,CCOC(=O)c1cnc2c(Cl)c(Cl)ccc2c1Nc1ccc(N(C)C)cc1,inactive: -1.03%

row,SMILES,activation
1,COC(=O)c1sc2cccc(F)c2c1S(=O)(=O)NCc1ccc(F)cc1,inactive: -3.69%
2,COc1ccc(C2CC(=O)N(Cc3cccc(C)c3)c3c2c(C)nn3-c2nc(C)cc(C)n2)c(OC)c1 (configuration not stated),inactive: -5.73%
3,O=C(Nc1ccc(F)cc1)c1ncn(-c2ccccc2)n1,inactive: 1.86%
4,COc1ccc(-n2c(=O)c3c4c(sc3n(Cc3c(F)cccc3Cl)c2=O)CN(C(C)=O)CC4)cc1OC,inactive: -11.2%
5,Cc1ccc(-c2noc(CN(C(=O)c3ccc(C(C)(C)C)cc3)C(C)C)n2)cc1,inactive: 21.8%
6,O=S(=O)(c1ccccc1)n1nc(-c2ccc(Cl)cc2)nc1NCc1ccc(F)cc1,active: 71.6%
7,COc1cccc(NC(=O)Cn2c(=O)c3cccn3c3ccc(F)cc32)c1,inactive: -11.7%
8,CCCc1cc(C(N)=S)ccn1,inactive: -66.2%
9,CCOC(=O)c1ccccc1NC(=O)CN(c1cc(C(F)(F)F)ccc1Cl)S(C)(=O)=O,inactive: -10.4%
10,O=C(Cn1ccc2cc(S(=O)(=O)N3CCCCCC3)ccc21)NCCc1ccccc1Cl,inactive: -10.1%
11,Cc1ccc(CCNC(=O)CCS(=O)(=O)c2ccc3c(c2)oc(=O)n3C)cc1,inactive: 30.7%
12,COc1cccc(N2CCN(S(=O)(=O)c3ccc(-c4cc(C(F)(F)F)on4)s3)CC2)c1,inactive: 5.53%
13,CCCCSCCCNC(=O)c1cn(CC)c2ccc(S(=O)(=O)N(C)C3CCCCC3)cc2c1=O,inactive: -17.2%
14,COc1cccc(-c2nc(SCC(=O)NCc3ccccc3)c3c(=O)n(C)c(=O)n(C)c3n2)c1,inactive: -8.23%
15,CCOc1ccccc1NC(=O)Nc1ccccc1OCc1cc(=O)n2ccccc2n1,inactive: 21.5%
16,COc1cc(Cl)c(C)cc1NC(=O)Cn1cnc2sc(C)c(S(=O)(=O)N3CCCCC3)c2c1=O,inactive: -8.53%
17,CCOC(=O)c1scc(-c2ccc(C)cc2)c1S(=O)(=O)Nc1cc(C)ccc1C,inactive: -14.8%
18,CN(CC(=O)NCc1ccc(Cl)cc1)S(=O)(=O)c1ccc2c(c1)c(=O)n(C)c(=O)n2C,inactive: -2.7%
19,Cc1ccc(CCNC(=O)c2ccc(CS(=O)(=O)Cc3ccc(Cl)cc3)o2)cc1,inactive: 7.47%
20,CCOc1ccccc1NC(=O)Cn1c(=O)n(-c2ccc(C)c(C)c2)c(=O)c2c(C)c(C(=O)N(C)C)sc21,inactive: -3.34%
21,COc1cc(/C=C/C(=O)O[C@H]2CC[C@]34C[C@]35CC[C@]3(C)[C@@H]([C@H](C)CCC=C(C)C)CC[C@@]3(C)[C@@H]5CC[C@H]4C2(C)C)ccc1O,inactive: 27.9%

row,SMILES,activation
1,O=C(NCc1ccc(Cl)cc1)C(=O)NCC(c1cccnc1)N1CCN(c2ccccc2)CC1 (configuration not stated),inactive: -2.43%
2,CCS(=O)(=O)c1c(S(=O)(=O)CC)c2cc(C(C)(C)C)ccn2c1C(=O)c1ccc(F)cc1,inactive: -4.34%
3,Cc1cc2c(cc1C)NC(CC(=O)Nc1cccc(C)c1C)C(=O)N2 (configuration not stated),inactive: -59.4%
4,COc1cccc(-c2nnc(SCC(=O)N3CCc4ccccc43)o2)c1,inactive: 4.41%
5,CC(Nc1ncnc2c1cnn2-c1cccc(Cl)c1)c1ccccc1 (configuration not stated),active: 91.4%
6,Cc1ccc(NC(=O)N(Cc2c[nH]c3ccccc23)C2CCCCCC2)cc1C,inactive: -0.127%
7,COc1ccc(CCNC(=O)Cc2c(C)c3ccc(O)c(C)c3oc2=O)cc1OC,inactive: 0.184%
8,O=c1n(Cc2ccc([N+](=O)[O-])cc2)c2ccccc2c2nc(-c3ccccc3)nn12,inactive: -8.45%
9,Cc1cc(C)cc(-n2c(SCC(=O)Nc3ccccc3F)nc3c(oc4ccccc43)c2=O)c1,inactive: 6.48%
10,Cc1ccc(Cn2cnc3nc4c(cc3c2=O)CCCC4)cc1,inactive: -4.78%
11,CCOc1ccc(NC(=O)c2cccc3c(=O)c4c([nH]c23)CCCC4)cc1,inactive: 8.06%
12,Cn1c(=O)n(C)c2cc(CNCc3ccc(F)cc3)ccc21,inactive: 2.13%
13,Cc1ccc(C(=O)N2CCc3cc(CNC(=O)c4ccccc4F)ccc32)cc1,inactive: -9.6%
14,Cc1c(NC(=O)Nc2ccccc2C(F)(F)F)c(=O)n(-c2ccccc2)n1C,inactive: -0.0635%
15,CCOc1ccc(C2=C(C(C)=O)Sc3nnc(C)n3N2C(C)=O)cc1,inactive: -77.9%
16,COc1ccc(CCNC(=O)CCN2N=C(c3ccccc3)CCC2=O)cc1OC,inactive: -6.74%
17,O=C(CS(=O)(=O)c1ccc(Cl)cc1)Nc1nc2ccc(Br)cc2s1,inactive: 9.31%
18,CCc1ccc(NC(=O)C2(c3cccs3)CCOCC2)cc1,inactive: -7.73%
19,Cc1oc2ncn(CC(C)C)c(=O)c2c1C(=O)N1CCN(c2ccccc2F)CC1,inactive: -10.2%
20,Cc1cc(C)c(NC(=O)CN(c2ccccc2)S(=O)(=O)N(C)C)c(C)c1,inactive: 2.8%
21,CSc1ccc(CCNC(=O)CN2C(=O)COc3ccc(S(=O)(=O)N4CCCC4)cc32)cc1,inactive: 2.73%

row,SMILES,activation
1,O=C(Nc1ccc2oc(-c3ccc4ccccc4c3)nc2c1)c1cccc(Cl)c1Cl,inactive: 16.5%
2,Cc1ccccc1NC(=O)c1cc2ccccc2o1,inactive: 11.1%
3,CCOc1ccc(NC(=O)c2cnn3c2NC(c2ccccc2)=CC3c2cccc(OC)c2OC)cc1 (configuration not stated),inactive: -40%
4,Clc1ccc(-c2nnn3c2nc(N2CCCCC2)c2ccccc23)cc1,inactive: -3.6%
5,CCN1c2ccccc2-c2nc(SCC(=O)Nc3cc(C)c(Cl)cc3OC)ncc2S1(=O)=O,inactive: -19.4%
6,Oc1c(C(c2cccc(Cl)c2)N2CCOCC2)sc2nc(-c3ccco3)nn12 (configuration not stated),inactive: 20.7%
7,O=C(Nc1ccc(F)c(Cl)c1)C1CCN(c2ncccn2)CC1,inactive: -16.4%
8,COc1ccc(CCNC(=O)c2c3c(nc4ccccc24)C(=O)N(C2CCCCC2)C3)cc1OC,inactive: 2.89%
9,Cc1ccc(C)c(N2CCN(c3nc4ccccc4n4nnnc34)CC2)c1,inactive: -8.3%
10,O=C(COc1ccc(F)cc1)NCc1ccc2c(c1)CCN2C(=O)c1ccc(F)cc1,inactive: -38.3%
11,Cc1cccc(OCC(=O)Nc2ccc(S(=O)(=O)N(Cc3ccccc3)c3ccccc3)cc2)c1,inactive: 10.2%
12,Cc1cc(-n2c(C)nc3ccccc3c2=O)ccc1NC(=O)c1cccc([N+](=O)[O-])c1C,inactive: 14.5%
13,Cc1cc(Br)cc(C)c1OCC(=O)Nc1ccc(S(=O)(=O)Nc2ncccn2)cc1,inactive: -1.07%
14,COCCn1c(=O)[nH]c2cc(C(=O)N3CCN(c4ccc(F)cc4)CC3)ccc2c1=O,inactive: 38.8%
15,CCc1nn(CC(=O)NCC(C)c2ccccc2)c(=O)c2cc3c(OC)cccc3n12 (configuration not stated),inactive: -6.18%
16,COC(=O)c1ccccc1NC(=O)C1CCCN(C(=O)c2cnn(-c3ccc(F)cc3)c2-n2cccc2)C1 (configuration not stated),inactive: 25.5%
17,Cc1oc(-c2ccccc2F)nc1Cn1c(SCc2cccc(Cl)c2)nc2ccncc21,inactive: -19%
18,Cc1ccc(-n2ncc3c(N4CCN(Cc5ccccc5)CC4)ncnc32)cc1C,active: 75.3%
19,N#C/C(=C\c1ccc(-c2ccc(Br)cc2)o1)C(=O)Nc1ccccc1O,inactive: 12.1%
